Measurements published in PubChem BioAssay AID1460 (National Center for Advancing Translational Sciences (NCATS), 2008).
Among all 270,000 compounds or so, about 5,800 (2.1%) were called active. Inconclusive results, whose numbers are uncertain, are shown with a selection of clear calls. Calls come from the whole dose curve; as a rule, active = well fitted inhibition curve with a large enough effect; inconclusive = small, poorly fitted or top-dose-only effect; inactive = flat fitted curve, though single readings scatter. Potencies beside an inconclusive call are fits to weak or partial responses and may not hold up.

target: Microtubule-associated protein tau (Homo sapiens) (UniProt P10636); test: qHTS for Inhibitors of Tau Fibril Formation, Thioflavin T Binding; conditions: recombinant tau K18 P301L (four-repeat tau fragment), heparin-induced fibrillization, ThT fluorescence; series mostly up to 57.4 µM; note: nearly all actives have a fitted effect of over 55% in size
UniProt P10636, sequence (P10636 whole entry, looked up, the tested form may be a part): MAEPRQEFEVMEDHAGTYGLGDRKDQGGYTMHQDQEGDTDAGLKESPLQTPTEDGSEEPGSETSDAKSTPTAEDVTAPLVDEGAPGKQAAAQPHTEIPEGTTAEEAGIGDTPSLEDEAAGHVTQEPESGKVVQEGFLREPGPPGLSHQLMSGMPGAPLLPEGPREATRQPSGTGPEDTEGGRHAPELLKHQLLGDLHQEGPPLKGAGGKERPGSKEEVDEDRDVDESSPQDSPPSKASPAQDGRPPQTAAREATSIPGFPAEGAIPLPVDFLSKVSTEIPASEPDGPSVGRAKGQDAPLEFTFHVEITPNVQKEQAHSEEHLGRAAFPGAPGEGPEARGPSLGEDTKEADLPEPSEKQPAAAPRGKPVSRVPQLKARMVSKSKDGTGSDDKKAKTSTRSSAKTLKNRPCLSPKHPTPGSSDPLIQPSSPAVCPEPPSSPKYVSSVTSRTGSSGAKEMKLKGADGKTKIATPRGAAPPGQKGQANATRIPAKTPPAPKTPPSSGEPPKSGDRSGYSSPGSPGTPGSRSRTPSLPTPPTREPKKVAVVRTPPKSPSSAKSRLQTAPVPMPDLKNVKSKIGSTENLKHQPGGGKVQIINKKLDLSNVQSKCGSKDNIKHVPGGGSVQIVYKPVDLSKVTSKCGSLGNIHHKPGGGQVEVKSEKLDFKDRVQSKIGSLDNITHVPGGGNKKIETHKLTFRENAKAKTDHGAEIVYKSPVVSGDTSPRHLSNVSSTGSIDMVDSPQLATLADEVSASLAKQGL
In short: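 Recombinant human tau K18 fragment […] carrying P301L, 15 uM unlabeled plus 0.24 uM Alexa 594-labeled, was fibrillized with 20 uM heparin in 100 mM sodium acetate pH 7 for 6 hr at 37 C; 30 uM ThT fluorescence read after 1 hr.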
Potency is the fitted concentration of half-maximal effect; tags give direction and shape of the fitted curve.

Compound	Potency
Cc1cc(C)c2nc(N3CCC(C(=O)N4CCN(c5ncccn5)CC4)CC3)sc2c1	inconclusive: 5.62 µM [inhibitor, partial curve]
CC(=O)c1ccc(S(=O)(=O)Nc2cc3c(cc2C(C)=O)OCO3)cc1	inactive
CCc1nc(Nc2ccc3c(c2)OCCO3)c2oc3ccccc3c2n1	inconclusive: 3.98 µM [inhibitor, full curve]
CC1=NN(c2ccccc2)C(=O)/C1=C/C=C/c1ccccc1	active: 15.8 µM
O=C(O)CCc1nnc2cnc3ccccc3n12	inconclusive: 12.6 µM [inhibitor, partial curve, poor fit]
COc1ccc(C(=O)NCCNc2ccccc2[N+](=O)[O-])cc1	active: 8.91 µM
Cc1nc2sc3c(c2c(=O)n1/N=C/c1cccnc1)CCCC3	inconclusive: 28.2 µM [inhibitor, single point]
Nc1c[n+](N2CCOCC2)no1	active: 7.08 µM
Cc1ccc(C(=O)n2c(-c3ccccc3)cnc2SCC(=O)Nc2ccc(C)cc2C)cc1	inconclusive: 10 µM [inhibitor, partial curve]
Cc1ccc(C(=O)/C=C/Nc2ccccc2C(N)=O)o1	inconclusive: 6.31 µM [inhibitor, partial curve, poor fit]
Cc1nn(-c2ccccc2)cc1/C=N/NC(N)=S	inactive
Cc1sc(NC(=O)c2ccc(Cl)s2)c(C(N)=O)c1C	inconclusive: 6.31 µM [inhibitor, full curve, poor fit]
Cc1c(CN(C)C(=O)c2sc3cc(Cl)ccc3c2Cl)cnn1C	inconclusive: 28.2 µM [inhibitor, partial curve]
CN1C(=O)/C(=C2\SC(=S)N(CC3CCCO3)C2=O)c2ccccc21 (stereo not drawn)	inactive
Cc1cc(=O)[nH]c(N/N=C/c2ccc(N(C)C)cc2)n1	inconclusive: 10 µM [inhibitor, partial curve]
COCCNC(=O)CSc1nc2cc3c(cc2c(=O)n1Cc1ccc(C(=O)NCCc2ccc(OC)c(OC)c2)cc1)OCO3	inconclusive: 1.12 µM [inhibitor, partial curve]
CC1C/C(=N\Nc2ccc(S(N)(=O)=O)cc2[N+](=O)[O-])CC(C)(C)C1 (stereo not drawn)	inconclusive: 39.8 µM [inhibitor, single point]
Brc1cccc(/C=N/Nc2nc(N3CCCCC3)nc(N3CCCCC3)n2)c1	inactive
COCCCNC(=O)CCC(=O)NNc1nc2ccccc2c2nc(-c3ccccc3)nn12	inconclusive: 44.7 µM [inhibitor, single point]
CCC(=O)Nc1nnc(/C=C/c2ccc(OC)cc2)s1	inconclusive: 15.8 µM [inhibitor, partial curve, poor fit]
NC1=C(O)C(=O)C(c2ccccc2)O1 (stereo not drawn)	inconclusive: 25.1 µM [inhibitor, partial curve, poor fit]
CC(C)(C)C(=O)NCCN1C(=O)S/C(=C\c2ccc([N+](=O)[O-])cc2)C1=O	inconclusive: 25.1 µM [inhibitor, single point]
Cc1ncc2c(c1OC(=O)c1ccc([N+](=O)[O-])cc1)COC(C)(C)OC2	inconclusive: 25.1 µM [inhibitor, single point]

Compound	Potency
COc1ccccc1NC(=O)COc1ccc(/C=N/NC(=O)CSCc2cc(C)cc(C)c2)cc1	inconclusive: 2.51 µM [inhibitor, full curve, poor fit]
O=C(/C(=C/O)N=Nc1ccccc1)c1ccco1	active: 20 µM
O=C(O)c1ccccc1/C=N/Nc1ccc(S(=O)(=O)N2CCCC2)cc1[N+](=O)[O-]	inconclusive: 28.2 µM [inhibitor, partial curve]
Cc1ccc(Cl)cc1N1CCN(C(=O)CCS(=O)(=O)c2cccc3nonc23)CC1	inactive
COc1cccc(-c2csc(-c3c(N)c(C(=O)c4ccccc4)n4ccccc34)n2)c1	inconclusive: 3.55 µM [inhibitor, full curve]
CC(C)c1cc(C(=O)NNC(=S)NCc2ccco2)c(O)c(C(C)C)c1	inconclusive: 28.2 µM [inhibitor, single point]
Cn1cnc([N+](=O)[O-])c1Sc1nc2ccccc2[nH]1	inconclusive: 28.2 µM [inhibitor, partial curve]
O=C(Oc1ccc(OC(=O)c2ccco2)c(S(=O)(=O)c2ccc(Cl)cc2)c1)c1ccco1	inconclusive: 31.6 µM [inhibitor, single point]
CCOC(=O)C1=C(N2CCCCC2)c2cc3c(n2C1=O)CCCC3	inconclusive: 15.8 µM [inhibitor, partial curve]
Cc1nc2c(C(=O)NCc3ccccc3Cl)cnn2c(C)c1Cc1ccccc1	inconclusive: 17.8 µM [inhibitor, partial curve, poor fit]
COc1ccc(NC(=O)Cn2c(=O)n(Cc3ccccc3)c(=O)c3oc4ccccc4c32)cc1Cl	inconclusive: 0.0891 µM [activator, full curve]
O=C(CNc1ccccc1)N/N=C/c1ccc2c(c1)OCCO2	inconclusive: 28.2 µM [inhibitor, partial curve]
CCOc1ccc(Nc2ncnc3c2cnn3-c2ccc(F)cc2)cc1	inconclusive: 0.447 µM [inhibitor, full curve, poor fit]
Cn1c2c(c(=O)n(C)c1=O)[C@@]1(C(=O)Nc3ccccc31)C(C#N)=C(N)O2	active: 14.1 µM
c1ccc2c(-c3nnc(SCc4cn5ccccc5n4)o3)c[nH]c2c1	inconclusive: 14.1 µM [inhibitor, partial curve]
CCCCC[C@H](O)/C=C/[C@H]1C(=O)C=C[C@@H]1C/C=C\CCCC(=O)O	inconclusive: 35.5 µM [inhibitor, single point]
CCCCCCc1cc2cc(-c3cn4c(n3)sc3cc(OC)ccc34)c(=O)oc2cc1O	inconclusive: 2.24 µM [inhibitor, partial curve]
O=S(=O)(NCCc1cn2ccsc2n1)c1ccc(Cl)cc1	inactive
O=C(CN1C(=O)COc2ccc(S(=O)(=O)N3CCOCC3)cc21)N1CCN(c2ccc(Cl)cc2)CC1	inactive
CCOC(=O)c1cnc(-n2nc(C)cc2C)nc1Nc1ccc(N(C)C)cc1	inconclusive: 25.1 µM [inhibitor, partial curve]
OC(CNc1nc2ccccc2s1)c1ccccc1 (stereo not drawn)	inactive
N#C/C=C\Oc1ccc(Cl)cc1N	inconclusive: 28.2 µM [inhibitor, partial curve]
CCOc1ccc(-n2cc(-c3ccc(OC)c(OC)c3)[nH]c2=S)cc1	inconclusive: 2 µM [inhibitor, full curve]

Compound	Potency
O=C(CCCn1c(=O)[nH]c2ccccc2c1=O)N1CCN(c2ccccc2)CC1	inconclusive: 8.91 µM [inhibitor, partial curve]
CC(=O)c1ccc(NC(=O)Cn2c(=O)oc3cc(S(=O)(=O)N4CCCCC4)ccc32)cc1	inactive
O=C1CCCc2[nH]c(=O)c(-c3nc(-c4cccc([N+](=O)[O-])c4)cs3)cc21	inactive
COc1ccccc1NCCC(=O)OCC(=O)NC1CC1	inactive
Nc1nc(-c2ccco2)nn1C(=O)c1ccc(F)cc1	inconclusive: 8.91 µM [inhibitor, partial curve]
Cn1c(NCc2ccco2)nc2c1c(=O)n(Cc1ccc(Cl)c(Cl)c1)c(=O)n2C	inconclusive: 25.1 µM [inhibitor, partial curve]
O=C(NCc1ccco1)c1cccc(NC(=O)c2ccco2)c1	inconclusive: 3.16 µM [inhibitor, partial curve]
Cc1noc(C)c1CSc1nc2ccccc2c(=O)n1-c1ccc(F)cc1F	inactive
O=C(/C=C/c1cccc([N+](=O)[O-])c1)N1CCN(c2ccc(F)cc2)CC1	inconclusive: 25.1 µM [inhibitor, single point]
CCOC(=O)C1=C(C)Nc2sc(C(=O)c3ccc(C)cc3)c(N)c2C1c1ccc(C(=O)OC)cc1 (stereo not drawn)	inactive
COc1ccc(Nc2ccc(S(=O)(=O)N3CCCCC3)cc2[N+](=O)[O-])cc1OC	inconclusive: 22.4 µM [inhibitor, single point]
Cc1ccc(-c2csc(NC(=O)c3ccc4c(=O)n5c(nc4c3)CCCCC5)n2)cc1	inconclusive: 12.6 µM [inhibitor, partial curve]
C=CCc1ccc(OCCCCCN2CCOCC2)c(OC)c1	inactive
O=C(COc1ccc2ccccc2c1Br)N1CCN(c2ccccn2)CC1	inconclusive: 20 µM [inhibitor, partial curve]
CC(NC(=O)c1nn(C)c(=O)c2ccccc12)c1ccccc1 (stereo not drawn)	inactive
Cc1ccc(-n2ncc3c(N4CCCCC4)ncnc32)cc1	inconclusive: 1.12 µM [inhibitor, full curve, poor fit]
CCCC(C)NC(=O)CSc1nc2ccc(C)cc2[nH]1 (stereo not drawn)	inactive
Cc1ccc(-c2nc3ccccc3[nH]2)cc1NC(=O)c1sc2ccccc2c1Cl	inconclusive: 1.41 µM [inhibitor, full curve]
Cc1ccc(C)n1-c1ccc(N(C)C)cc1	active: 12.6 µM
COc1ccc(Cl)cc1NC(=O)c1sc2nc3c(cc2c1N)CN(C)CC3	inconclusive: 14.1 µM [inhibitor, partial curve]
CC1CCCC(NC(=O)COC(=O)CSc2ccc3ccccc3c2)C1C (stereo not drawn)	inconclusive: 14.1 µM [inhibitor, partial curve]
O=C(CCCCC(=O)N1CCN(c2ccccc2)CC1)N1CCN(c2ccccc2)CC1	inconclusive: 0.447 µM [inhibitor, full curve]
